Experimental data published in PubChem BioAssay (NCI).
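48-hour exposure; five concentrations; linearly interpolated endpoints. GI50 marks 50% less growth. The concentration for full growth arrest is given as TGI.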

Test system: NCI-H322M lung
Test: inhibition of tumour cell growth, NCI panel, 48 h

Structure (SMILES)	GI50 [µM]	TGI
OCNCCNc1nc2ccccc2c2[nH]c3ccccc3c12	1.46	3.88 µM
CN1CCN(c2nc(-c3ccncc3)nc3sc4c(c23)CCCCCC4)CC1	13.1	26.2 µM
O=c1[nH]c2ccccc2n1-c1n[nH]c2ccccc12	56.5	> 100 µM
CC(=O)Oc1ccc(/C=N/NC(N)=S)nc1	4.96	72.7 µM
O=C(c1ccco1)N(C(=S)OC12CC3CC(CC(C3)C1)C2)c1ccccc1	–	> 100 µM
CC(C)(C)OC(=O)n1cc(C2CN(O)C(=O)C23CCC(=O)N3Cc2ccccc2)c2ccccc21 (stereo not drawn)	–	> 100 µM
CCOc1ccc(C(CN2CCOCC2)C(C)=O)cc1OC (stereo not drawn)	–	> 100 µM
CCC1CNC(=O)CC1CC(=O)OC (stereo not drawn)	–	> 100 µM
NC(=O)CO/N=C1/C(c2c(O)[nH]c3ccccc23)=Nc2ccccc21	–	> 100 µM
Cc1ccccc1OC(C)C(=O)NN1C(=O)CC(=O)N(c2ccccc2)C1=S (stereo not drawn)	–	> 100 µM
CC1CCC2N(C1)CC1C3(O)CC45OC6(O)C(O)CCC4(C)C6CCC5C3(O)CC(O)C1(O)C2(C)O (stereo not drawn)	–	> 100 µM
O=C1C=CC(=O)c2c(Cl)ccc(O)c21	–	80.1 µM
CCOC(=O)C1CCCCN1CCc1c[nH]c2ccccc12 (stereo not drawn)	–	> 100 µM
FC1OC2OC1C(OCc1ccccc1)C(OCc1ccccc1)C2OCc1ccccc1 (stereo not drawn)	–	> 100 µM
C/C=C1\C(=O)OC2CCN3CCC(COC(=O)C(C)(O)C(C)C1O)C23 (stereo not drawn)	–	> 100 µM
CC1CC/C(=C\c2ccc(Cl)cc2)c2nc(N)c(C#N)c(-c3ccc(Cl)cc3)c21 (stereo not drawn)	–	> 100 µM
COC(=O)c1c(C)nc(C)c(NO)c1-c1ccccc1C(F)(F)F	–	> 100 µM
C=CC1CN2CCC1CC2C(O)c1ccnc2ccccc12 (stereo not drawn)	–	> 100 µM
CO[C@H]1C[C@H](O[C@H]2CC[C@]3(C=O)[C@H]4CC[C@]5(C)[C@@H](C6=CC(=O)OC6)CC[C@]5(O)[C@@H]4CC[C@]3(O)C2)O[C@H](C)[C@H]1O	–	4.08 µM
O=C1C=CC(=O)c2c(O)c(N3CCN(CCOCCO)CC3)c(Cl)c(O)c21	–	3.92 µM [middle of 4 runs]
O=C(Nc1ccccc1C(=O)N/N=C(\c1ccccc1)c1ccccn1)c1ccc(F)cc1	0.206	> 100 µM
CN(C=O)/C=C/c1cc(O)ccc1O	–	> 100 µM
O=C(/C=C/c1cccs1)c1ccccc1Cl	–	28.8 µM
Cc1ccc(-c2n[nH]c(=O)n2/N=C\c2ccccc2)cc1	–	> 100 µM
CCN(CC)CCN(C(=O)C(C)(C)C)c1ccccc1N	–	> 100 µM
C=C1C(=O)O[C@H]2[C@H]3O[C@@H](C[C@@H]12)[C@](C)(O)CC[C@@H]1O[C@@]1(C)CCC[C@H]3C	–	> 100 µM

Structure (SMILES)	GI50 [µM]	TGI
O=C(NCCCCCCCNC(=O)OCc1ccc2c(Cl)cc(Cl)c(O)c2n1)OCc1ccc2c(Cl)cc(Cl)c(O)c2n1	1.68	3.36 µM
CCOC(=O)C(NC(=O)c1[nH]cnc1/N=N/N(C)C)C(C)C (stereo not drawn)	–	> 100 µM
CC1=NN(C(=O)c2ccccc2O)C(=O)/C1=C/c1cccc([N+](=O)[O-])c1	–	> 100 µM
CC(NC(=O)c1ccccc1)(C(=O)O)C(=O)O	–	> 100 µM
Cc1cc(Cl)ccc1Nc1nc(C(F)(F)F)ccc1C(=O)N1CCN(c2cccc(Cl)c2)CC1	> 100	> 100 µM
CCOP(=O)(Nc1ccc2oc(=O)c3ccccc3c2c1)OCC	–	> 100 µM
COc1ccccc1CNCCCCCCCCCCCCN1C(=O)c2ccc3c4c(ccc(c24)C1=O)C(=O)N(CCCCCCCCCCCCNCc1ccccc1OC)C3=O	> 50	> 50 µM
Cc1c(C(=O)CSc2nc3ccccc3[nH]2)c(=O)n(-c2ccccc2)n1C	–	> 100 µM
CCOC(=O)C(=O)C(=O)NN(C)C1=NCCN1	–	> 100 µM
Cc1[nH]c(=O)[nH]c(=S)c1C(=O)Nc1cccc2cc3ccccc3cc12	–	> 100 µM
COC(=O)c1c(-c2ccc(Cl)cc2)cc2c3ccccc3n(C)c2c1C(=O)OC	–	> 100 µM
Nc1nc(Cl)cc(NCC2(O)CCCC2)n1	–	> 100 µM
COc1ccccc1NC(=O)C(CC(C(=O)Nc1ccccc1OC)/C(C)=N/Nc1ccc([N+](=O)[O-])cc1[N+](=O)[O-])/C(C)=N/Nc1ccc([N+](=O)[O-])cc1[N+](=O)[O-] (stereo not drawn)	–	> 100 µM
O=c1c2ccccc2oc2ccc(OCCCCCCN3CCCCCC3)cc12	9.31	22.1 µM
COc1ccc(CCN2CCc3c(C)c(C#N)c4nc5ccccc5n4c32)cc1OC	–	> 100 µM
CCOc1cc(-c2ccc[nH]2)[nH]c1/C=C1\N=C(C)C(C(=O)OC)=C1C	0.582	2.74 µM
CCCNc1ncnc2[nH]ncc12	–	> 100 µM
CN1CCc2c1nc(-c1ccc([N+](=O)[O-])cc1)c1c2N(C)CC1	–	> 100 µM
Cc1nc(-n2nc(-c3ccccc3)cc2-c2ccccc2)sc1C(/C=C/c1ccc([N+](=O)[O-])cc1)=N/NC(=O)c1ccncc1	–	> 100 µM
COc1cc(/C=C(\C#N)C(N)=C(C#N)C#N)cc(O)c1O	–	> 100 µM
C[C@]12CC[C@H](OC3CCCCO3)CC1=CC[C@@H]1C2CC[C@]2(C)/C(=N/O)CCC12 (stereo partly drawn)	–	65.6 µM
CC(=O)N(Cc1ccccc1)c1ccccc1I(=O)=O	> 100	> 100 µM
CO[C@]1(CN2CCN3CCCC[C@@H]3C2)/C=C/C[C@H](C)[C@@H](C)S(=O)(=O)NC(=O)c2ccc3c(c2)N(C[C@@H]2CC[C@H]21)C[C@@]1(CCCc2cc(Cl)ccc21)CO3	2.34	8.18 µM
CS(=O)(=O)NC12CCC(c3ccccc31)c1ccccc12	–	> 100 µM
Cc1cc(C(O)CN(C)C)cc2c1ccc1cc(C(C)C)ccc12 (stereo not drawn)	1.97	3.76 µM
O=C1C=CC2(C=C1)C[C@H](NC(=O)C(F)(F)F)C(=O)O2	–	> 100 µM

Structure (SMILES)	GI50 [µM]	TGI
Nc1[nH]c(=O)ncc1CO	> 100	> 100 µM
NC(=O)Cc1nc2c(=O)[nH]cnc2n1C1OC(CO)C(O)C1O (stereo not drawn)	–	> 100 µM
CCCCCCCCCCCCCCCCOC(=O)c1cc(O)cc(C(=O)OCCCCCCCCCCCCCCCC)c1	–	> 100 µM
CCCCCCCCCCCCCc1nn[nH]n1	–	32.8 µM
CC(C)C1(O)C(=O)N(c2c(F)c(F)c(F)c(F)c2F)C(=S)N1CCSc1ccccc1 (stereo not drawn)	–	31.8 µM
Oc1[nH]c2cc(Cl)ccc2c1/C=c1/ccc2c(c1)N=C(c1cc(F)cc(F)c1)N=2	4.82	24.4 µM
S=C(NCc1ccccc1)N/N=C/c1ccccn1	–	> 100 µM
Cc1cc(Cl)ccc1NS(=O)(=O)c1ccc(-c2cnc(C3CC3)o2)cc1	0.669	26.6 µM
C=[CH][Sn]([CH]=C)([O]c1cccc2cccnc12)[O]c1cccc2cccnc12	5.65	16.4 µM
CC1CC2(C)CC(=O)C1C1C(=O)N(CCN3CCCCC3)C(=O)C12 (stereo not drawn)	> 100	> 100 µM
COC(=O)/C(=N/NC(N)=O)C(C(=O)OC)C(=O)C(=O)Nc1ccc(Cl)cc1 (stereo not drawn)	–	> 100 µM
Cc1ccc(NC(=O)CC(=O)N2N=C(N(CCC#N)c3cccc(C)c3)CC2c2ccccc2)cc1 (stereo not drawn)	–	> 100 µM
O=C1CC(n2cccc2)c2c(Br)sc(Br)c21 (stereo not drawn)	–	36.5 µM
COc1ccc2nc3n(c2c1)CCc1cc(OC)c(OC)cc1-3	–	> 100 µM
O=C1CN(/N=C/c2ccc(-c3ccc(F)cc3)o2)C(=O)N1	–	> 100 µM
COC(OC)c1cc2c(cc1C(=O)[C@@]13CCC[C@@H]1NC(=O)O3)OCO2	–	> 100 µM
C/C(=N\Nc1nc2ccccc2[nH]1)c1cc2ccccc2cn1	–	1.61 µM
CNC(=O)CN(CC(N)=O)C(N)=O	–	> 100 µM
Cc1csc(NC(=NCCN2CCOCC2)Nc2nc(C)cs2)n1	–	> 100 µM
N=C1C=C(N)C(=O)c2[nH]c(=O)ccc21	–	3.7 µM
Cc1cc2cc3c(cc2c(-c2ccc(N)cc2)n1)OCO3	–	> 100 µM
COc1ccc(C2CCc3cc4c(cc3/C2=N/OC(C)=O)OCO4)cc1OC (stereo not drawn)	–	> 100 µM
NCCC1CN(C(=O)OCc2ccccc2)c2ccccc21 (stereo not drawn)	–	54.3 µM
CN(C)C(=S)Oc1ccc2ccc(=O)oc2c1	–	> 100 µM
O=C(Cc1ccccc1)NN1C(=O)/C(=C\c2ccc(O)cc2)SC1=Nc1ccccc1	–	> 100 µM
CCOP(=O)(OCC)/C(C#N)=C/c1cccn1Cc1ccccc1	–	> 100 µM

Structure (SMILES)	GI50 [µM]	TGI
Cc1nc(-c2cc3cc(Cl)ccc3oc2=O)cc2c1c(=O)oc1ccc(Cl)cc12	–	> 100 µM
Cc1cc(Cl)cc2c1NC(=O)C2=O (tested in a mixture with another compound)	–	> 100 µM
COc1cccc(C2NC(=S)NC(C)=C2C(=O)Nc2ccc(Cl)c(Cl)c2)c1 (stereo not drawn)	10.8	25.8 µM
CCOP(=O)(OCC)C(C)(CC)NC(=O)C(C(F)(F)F)C(F)(F)F (stereo not drawn)	–	> 100 µM
C=C(C)[C@@H]1CC[C@]2(C(=O)O)CC[C@]3(C)[C@H](CCC4[C@@]5(C)CC[C@H](C(=O)/C=C/c6ccc(O)c(O)c6)C(C)(C)[C@@H]5CC[C@]43C)[C@@H]12 (stereo partly drawn)	–	27.1 µM
CC1COCC(C)N1C1=C(Cl)C(=O)c2ccccc2C1=O (stereo not drawn)	15.4	29.1 µM
COc1cc2c(c(OC)c1OC)-c1ccc(SC)c(=O)cc1[C@@H](NC(=O)c1ccc(Cl)cc1)CC2	–	> 100 µM
N#CC1C=Cc2ccccc2N1C(=O)Oc1ccccc1 (stereo not drawn)	–	> 100 µM
C#CCC1(C(=O)OCC)C(=O)c2ccccc2N(C)C1=O (stereo not drawn)	–	> 100 µM
CC(=O)O[C@H]1CC[C@@]2(C)[C@H](CC[C@@H]3[C@@H]2CC[C@]2(C)[C@@H](c4ccc(=O)oc4)C[C@H]4O[C@]342)C1	–	2.02 µM
COc1ccc(-c2cc(C(O)C3CCCCN3)c3ccccc3n2)cc1 (stereo not drawn)	–	21.1 µM
Cc1cc2c(c(=O)n1C)SCC2	–	> 100 µM
COC1(OC)c2no[n+]([O-])c2C(OC)(OC)c2c1no[n+]2[O-]	–	31 µM
CCOC(=O)c1cn(C)c(=S)n2c1nc1ccccc12	–	> 100 µM
O=C(NNCc1ccc(Cl)cc1)Nc1cccc2ccccc12	–	> 100 µM
CCOC(=O)c1cnccc1CC1(C#N)c2ccccc2C=CN1C(=O)c1ccccc1 (stereo not drawn)	–	> 100 µM
CSc1ccc(/C=C2\N=C(c3ccccc3)N(/N=C/c3cc4cc(C)ccc4nc3Cl)C2=O)cc1	–	> 100 µM
CC(C)(C)C1CC[C@H](O)[C@H]([C@H](O)CC2CC(=O)N(c3ccccc3)C(=O)C2)C1 (stereo partly drawn)	–	> 100 µM
C/C(Nc1ccc(Cl)cc1Cl)=C1/CCOC1=O	–	> 100 µM
COc1ccc2nc3ccccc3c(NCCCCN(C)CCCl)c2c1	–	2.38 µM
O=C1c2ccccc2-c2[nH]c3cn[nH]c(=O)c3c21	–	> 100 µM
O=C(Cc1csc2nc(-c3ccc(Br)cc3)cn12)N/N=C/c1ccc(O)cc1	4.4	34.6 µM
N[C@@H]1CCCC[C@@H]1N.O=P([O-])([O-])CN(CP(=O)([O-])[O-])CP(=O)([O-])[O-].[Pt+2]	> 100	> 100 µM
